From PubChem BioAssay AID1346428 (National Center for Advancing Translational Sciences (NCATS), 2018)
Out of some 48,000 compounds screened, about 1,200 (2.5%) were called active. About 2% were inconclusive and are not listed.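 How the source made its calls: active means activation of at least 60% and not above a set upper limit (about 1 call in 100 departs from these limits); inconclusive means activation of 40% to 60%, or above that upper limit; inactive means activation under 40%.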 The list shows a part of the results.
Further: 0% is about no effect.

The compounds below were run against Probable G-protein coupled receptor 32 (Homo sapiens) (UniProt O75388) (assay: qHTS for Agonists of Human Resolvin D1 Receptor DRV1). Details: CHO-K1 GPR32 beta-arrestin PathHunter luminescence, 90 min; at 76.9 µM; hits give high values; zero percent set by DMSO-only wells.
Sequence of UniProt O75388 (O75388 whole entry, looked up): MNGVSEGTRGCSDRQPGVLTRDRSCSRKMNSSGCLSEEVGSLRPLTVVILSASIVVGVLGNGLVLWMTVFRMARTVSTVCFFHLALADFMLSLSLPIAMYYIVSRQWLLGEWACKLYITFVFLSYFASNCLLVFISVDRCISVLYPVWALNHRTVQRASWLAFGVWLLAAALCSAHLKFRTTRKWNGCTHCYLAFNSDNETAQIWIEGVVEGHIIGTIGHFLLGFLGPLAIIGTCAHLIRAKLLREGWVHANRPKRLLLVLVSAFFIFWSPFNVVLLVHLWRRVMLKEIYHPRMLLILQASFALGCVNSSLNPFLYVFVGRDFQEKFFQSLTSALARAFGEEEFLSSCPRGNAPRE
Outline: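 Engineered CHO-K1 line co-expressing GPR32-ProLink and EA-beta-arrestin. Compound treatment lasted 90 min at 37 °C. Luminescence was recorded after 1 h with substrate at ambient temperature, relative to DMSO basal wells.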
With `CCOCCCn1c(=N)c(C(=O)NC2CCCCC2)cc2c(=O)n3ccccc3nc21` the activation was inactive: 21.3%. With `CCc1nn(CC(=O)NCc2ccccc2)c(=O)c2cccn12` the activation was inactive: -4.93%. For `CCOC(=O)c1ccc(N2C(=O)c3[nH]nc(-c4ccc(OC)cc4)c3C2c2cccc(O)c2)cc1` (stereo not given), the activation was inactive: -7.33%. With `CCc1cccc(NC(=O)CSc2ncc3c(n2)-c2cc(Cl)ccc2N(C)S3(=O)=O)c1` the activation was inactive: -14.1%. With `COc1ccccc1CNC(=O)CCn1c(=O)c2ccccc2n(CC(=O)Nc2cc(Cl)ccc2C)c1=O` the activation was inactive: -2.53%. With `COc1ccccc1NC(=O)Cn1nnc(C(=O)NCc2cccs2)c1N` the activation was inactive: 43%. With `Cc1ccc(Cl)cc1N1CCN(C(=O)Cn2nc(C)c3sc4ccccc4c3c2=O)CC1` the activation was inactive: -7.63%. In the case of `Cc1ccc(C2NC(=O)c3n[nH]c(-c4cccs4)c32)cc1` (stereo not given), the activation is reported as active: 120%. For `C[C@]12C=CC(=O)C=C1[C@@H](F)C[C@@H]1[C@@H]2[C@@H](O)C[C@@]2(C)[C@H]1CC[C@]2(O)C(=O)CO`, the activation was inactive: 8.03%. `CCC(C)NC(=O)CCSc1nc(-c2ccc3c(c2)OCO3)cc(C(F)(F)F)n1` (stereo not given) was tested, and the activation was inactive: -0.965%. For `COc1ccc(NC(=O)CCS(=O)(=O)c2nc(-c3ccc4c(c3)OCO4)cc(C(F)(F)F)n2)cc1OC`, the activation was inactive: -8.68%. `O=C(Nc1cccc(C(=O)OCc2cc(=O)n3c4c(sc3n2)CCCC4)c1)c1cccc(F)c1` was tested, and the activation was inactive: -17.4%. With `COC(=O)c1c(NC(=O)Cc2coc3cc(C)cc(C)c23)sc2c1CCC2` the activation was inactive: 6.45%. `COc1cc(C(=O)NCc2ccc3c(c2)CCN3C(=O)c2ccc(Cl)cc2)cc(OC)c1OC` was tested, and the activation was inactive: -21.7%. `Cc1ccc(NC(=O)CSc2nc(=O)n(Cc3ccccn3)c3c2CCC3)cc1F` was tested, and the activation was inactive: 18.8%. `Cc1ccc(NC(=O)CSc2nc3ccc(NC(=O)c4ccco4)cc3s2)cc1` was tested, and the activation was active: 98.5%. In the case of `COc1ccc(C2CC(=O)c3cc(-c4nc(-c5cccc([N+](=O)[O-])c5)cs4)c(=O)n(-c4cccc(C)c4)c3C2)cc1` (stereo not given), the activation is reported as inactive: 12.5%. With `COCCNC(=O)c1c(NC(=O)c2cc(=O)c3cc(C)cc(C)c3o2)sc2c1CCCC2` the activation was inactive: -14.4%. In the case of `CCc1ccc(NC(=O)c2cnc3c(-c4ccccc4)c(C)nn3c2C)cc1`, the activation is reported as inactive: -6.36%. `CC(=O)c1ccc(NC(=O)c2ccc(-c3nc(CSc4ccc(C)cc4)c(C)o3)cc2)cc1` was tested, and the activation was inactive: -3.97%. With `O=C(Nc1ccccc1Cl)N1CCC2(CC1)Oc1ccccc1C(=O)N2Cc1ccc(F)cc1` the activation was inactive: -10.3%. For `COc1cccc(Cn2c(C)c(CNCc3cccc(C)c3)c(C(=O)O)c2C)c1`, the activation was inactive: -1.27%. In the case of `O=C(CCC1N=C2c3ccccc3N=C(SCc3ccc(Cl)cc3)N2C1=O)NCc1cccs1` (stereo not given), the activation is reported as inactive: -20.5%. With `COc1ccc(OCC(O)Cn2c(=N)n(CCN3CCCCC3)c3ccccc32)cc1` (stereo not given) the activation was inactive: 4.48%. For `Cc1ccc(NS(=O)(=O)c2ccc3oc(=O)c4ncn(C)c4c3c2)cc1C`, the activation was inactive: 5.19%. With `CN(C)c1ccc(CNC(=O)CN2C(=O)C3CCCCN3c3ccc(C(=O)N4CCCC4)cc32)cc1` (stereo not given) the activation was inactive: -10.8%. For `CCC(=O)N1CCc2cc(S(=O)(=O)NC(CC(C)C)C(=O)Nc3cccc(C)c3C)ccc21` (stereo not given), the activation was inactive: -8.98%. With `COc1ccccc1C(=O)n1nc(-c2ccccc2)nc1NCc1ccc(Cl)cc1` the activation was inactive: 3.11%. With `O=C(CCc1ccccc1)NC1CC(=O)N(c2cccc(F)c2)C1` (stereo not given) the activation was inactive: -5.72%. `Cc1ccc(N2CCN(C(=O)c3cccn4c(=O)c5ccc(Cl)cc5nc34)CC2C)cc1` (stereo not given) was tested, and the activation was inactive: -11.2%. In the case of `CCC(C)NC(=O)c1cc2n(n1)CCCN(Cc1ccc(C)cc1)C2=O` (stereo not given), the activation is reported as inactive: 24%. `Cc1ccc(S(=O)(=O)C(CNC(=O)C(=O)NCCc2ccc(Cl)cc2)c2ccco2)cc1` (stereo not given) was tested, and the activation was inactive: -1.2%. With `CCn1cc(C(=O)N2CCN(c3ccccc3)CC2)c(=O)c2cc(S(=O)(=O)N(C)C)ccc21` the activation was inactive: 7.11%. `Cc1ccc(Nc2nc(N)nc(CSc3nc4ccccc4s3)n2)cc1` was tested, and the activation was active: 82.9%. For `COc1ccc(C(CNC(=O)c2oc3cc(C)c(C)cc3c2C)N2CCCCC2)cc1` (stereo not given), the activation was inactive: 6.91%. In the case of `O=C(Cc1ccc(F)cc1)NCCc1csc2nc(-c3ccccc3F)nn12`, the activation is reported as active: 61.7%. With `COc1ccc(CCNS(=O)(=O)c2c(C)nc3sccn3c2=O)cc1OC` the activation was inactive: -3.55%. For `Cc1c2cnn(CC(=O)NCc3ccc(Cl)cc3)c(=O)c2c(C)n1Cc1ccc(F)cc1`, the activation was inactive: 0.152%. `Cc1cc(NS(=O)(=O)c2ccc(NC(=O)COc3ccccc3Br)cc2)no1` was tested, and the activation was inactive: 28.8%. In the case of `Cc1ccccc1Nc1nn2c(=O)c3ccc(C(=O)NCc4cccs4)cc3nc2s1`, the activation is reported as inactive: -6.92%. For `Cc1cc(C)cc(NC(=O)CSc2ccc(-c3cccs3)nn2)c1`, the activation was inactive: -9.28%. With `CCN(CCCNC(=O)c1cc2c(=O)n(C)c3ccccc3c2s1)c1ccccc1` the activation was active: 70.3%. With `CCc1ccccc1Nc1nn2c(=O)c3ccc(C(=O)NC(C)C)cc3nc2s1` the activation was inactive: 2.75%. For `O=C(Cn1c(=O)n(Cc2ccco2)c(=O)c2oc3ccccc3c21)Nc1ccccc1`, the activation was inactive: -1.91%. `COc1cc(NC(=O)C2CCN(c3cnccn3)CC2)cc(OC)c1` was tested, and the activation was inactive: -34.1%. With `COc1ccccc1N1CCN(C(=O)C2CCN(S(=O)(=O)c3cn(C)cn3)CC2)CC1` the activation was inactive: -5.08%. In the case of `COc1ccc(-c2cc(=O)c3c(O)cc(O[C@@H]4O[C@H](CO[C@@H]5O[C@@H](C)[C@H](O)[C@@H](O)[C@H]5O)[C@@H](O)[C@H](O)[C@H]4O)cc3o2)cc1O`, the activation is reported as inactive: 11.7%. With `COc1ccccc1NC(=O)CN1C(=O)C(c2ccc(F)cc2)=NC12CCCCC2` the activation was inactive: -32.1%. `CCOCCCNC(=O)c1ccc2c(=O)n(CCc3ccccc3)c(=O)[nH]c2c1` was tested, and the activation was inactive: -3.9%. For `CCc1ccc2oc(-c3cc(NC(=O)c4cc(OC)c(OC)c(OC)c4)ccc3O)nc2c1`, the activation was inactive: 10.7%. With `COc1cccc(N2CCN(C(=O)c3cnn(-c4ccccc4Cl)c3C3CCN(C(=O)OC(C)(C)C)CC3)CC2)c1` the activation was inactive: -32.1%. With `COc1cccc(NC(=O)C2CCC(CNS(=O)(=O)c3csc(C(N)=O)c3)CC2)c1` (stereo not given) the activation was inactive: 5.98%. For `CC(=O)c1ccc(NC(=O)CSc2nc(=O)n(Cc3ccccn3)c3c2CCC3)cc1`, the activation was inactive: -2.67%. `CCOC(=O)Cc1ccc(NC(=O)NC(C)c2c(-n3cccc3)sc(C)c2C)cc1` (stereo not given) was tested, and the activation was inactive: -22.9%. For `COc1ccc(-c2onc(C)c2C)cc1S(=O)(=O)NCCc1ccccc1`, the activation was inactive: 3.28%. `Oc1c(C(c2ccccc2)N2CCCC2)sc2nc(-c3ccco3)nn12` (stereo not given) was tested, and the activation was inactive: -12.6%. With `CCOC(=O)c1c(C)[nH]c(CCC(=O)NCc2cc(OC)c(OC)c(OC)c2)c1C` the activation was inactive: -11.3%. In the case of `COc1cc(-n2c(=O)c3ccccc3n(Cc3cccc(Cl)c3)c2=O)cc(OC)c1OC`, the activation is reported as inactive: -2.21%. In the case of `COc1ccc(CCN2C(=O)N(c3cccc(OC)c3)C(=O)C2CC(=O)Nc2ccccc2)cc1` (stereo not given), the activation is reported as inactive: -4.91%. For `Cc1cc2oc(=O)c(CC(=O)O)c(C)c2c2occ(-c3ccccc3)c12`, the activation was inactive: 7.87%. With `Cc1ccc(C)c(Cn2c(=O)n(-c3ccccc3)c(=O)c3c4c(sc32)CCCC4)c1` the activation was inactive: -15.2%. `COc1ccc(CNC(=O)CN2C(=O)CCn3nc(-c4cn(C)c5ccccc45)cc32)cc1` was tested, and the activation was inactive: 24.1%. With `CCNC(=O)CC1C(=O)N(c2ccc(C)cc2)C(=O)N1CCOC` (stereo not given) the activation was inactive: -3.61%. For `O=C(c1ccc2c(c1)N(Cc1cccc(Cl)c1)C(=O)c1ccccc1S2=O)N1CCC(Cc2ccccc2)CC1` (stereo not given), the activation was inactive: -27.4%. In the case of `CC[N+](CC)(CC)CCOC(=O)C(C1CCCC1)C1CCCC1`, the activation is reported as inactive: 5.39%. In the case of `O=C(c1cccc([N+](=O)[O-])c1)N1CCN(c2ccc(Nc3ccccc3)nn2)CC1`, the activation is reported as inactive: -23.5%. With `COc1nnc(-c2ccc(N3CCCCC3)c(NC(=O)c3ccc(C)cc3)c2)c2ccccc12` the activation was inactive: 12.3%. For `CCn1nc(C)c2c(-c3ccccc3)cc(=O)n(C(C)C(=O)NCCc3ccc(Cl)cc3)c21` (stereo not given), the activation was inactive: -21.5%. With `O=S(=O)(c1ccc(-c2cnc(C3CC3)o2)cc1)N1CCN(c2ccc(F)cc2)CC1` the activation was inactive: 1.99%. For `CCOc1ccc(NC(=O)CCCn2c(C)c3cnn(-c4ccccc4)c(=O)c3c2C)cc1`, the activation was inactive: -33.6%. `CCOc1cccc(CNCCCSc2nnnn2C)c1` was tested, and the activation was inactive: 3.85%. In the case of `COc1ccc(OC)c(NC(=O)CSC2=Nc3ccccc3C3=NC(CC(=O)NCCc4ccccc4)C(=O)N23)c1` (stereo not given), the activation is reported as inactive: -6.84%. `COc1ccc(S(=O)(=O)n2nc(C)c(S(=O)(=O)N3CCCCCC3)c2C)cc1C` was tested, and the activation was inactive: -8.64%. `N#Cc1cc([N+](=O)[O-])c2sc(C(N)=O)[n+]([O-])c2c1` was tested, and the activation was inactive: 21.9%. With `CN1CCN(c2nc3c(S(=O)(=O)c4ccc(Cl)cc4)nnn3c3ccsc23)CC1` the activation was inactive: -0.0358%. In the case of `CC(=O)Nc1ccc(C)cc1-c1nc2ccccc2n(CC(=O)c2ccc(C)c(C)c2)c1=O`, the activation is reported as inactive: -5.93%. `CCOC(=O)c1c(N)n(-c2ccc(CC)cc2)c2nc3ccccc3nc12` was tested, and the activation was inactive: 2.68%. With `O=C(NCCc1csc(-c2ccc(C(F)(F)F)cc2)n1)C(=O)Nc1ccc(F)c(Cl)c1` the activation was inactive: -7.23%. For `CCOc1ccccc1NS(=O)(=O)c1ccc(N2CCCCS2(=O)=O)cc1`, the activation was inactive: -4.04%. In the case of `Cc1ccc(N(CC(=O)N2CCN(c3ccccc3)CC2)S(=O)(=O)c2c(C)noc2C)cc1`, the activation is reported as inactive: -3.7%.
